Laboratory results reported in the supplement of paper PMC8728848.
This is one part of the list.

What was measured:
Assay in all cases: glycan array binding signal (z-score within array); higher = stronger binding
Details in all cases: glycan notation: IUPAC condensed, linker removed
[1] = molecular target: Fuc(a1-2)Gal(b1-4)GlcNAc(b1-3)Gal(b1-4)GlcNAc(b1-2)Man(a1-3)[Fuc(a1-2)Gal(b1-4)GlcNAc(b1-3)Gal(b1-4)GlcNAc(b1-2)Man(a1-6)]Man(b1-4)GlcNAc(b1-4)GlcNAc
Method in brief: (§1)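 From the Consortium for Functional Glycomics database, 3228 arrays were curated, keeping only those whose protein sequence was available. Binding is given as a within-array Z-score averaged across arrays sharing a protein sequence and across linkers. Negative Z-scores can be read as non-binding.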

[2] = molecular target: Fuc(a1-2)Gal(b1-4)GlcNAc(b1-3)Gal(b1-4)GlcNAc(b1-3)Gal(b1-4)GlcNAc
Method in brief: as §1

[3] = molecular target: Fuc(a1-2)Gal(b1-4)GlcNAc(b1-3)GalNAc
Method in brief: as §1

[4] = molecular target: Fuc(a1-2)Gal(b1-4)GlcNAc(b1-3)[Fuc(a1-2)Gal(b1-4)GlcNAc(b1-6)]GalNAc
Method in brief: as §1

[5] = molecular target: Fuc(a1-2)Gal(b1-4)GlcNAc(b1-3)[Fuc(a1-3)[Gal(b1-4)]GlcNAc(b1-6)]Gal(b1-4)Glc
Method in brief: as §1

[6] = molecular target: Fuc(a1-2)Gal(b1-4)GlcNAc(b1-6)GalNAc
Method in brief: as §1

[7] = molecular target: Fuc(a1-2)Gal(b1-4)GlcNAc6S
Method in brief: as §1

[8] = molecular target: Fuc(a1-2)Gal(b1-4)[Fuc(a1-3)]GlcNAc
Method in brief: as §1

[9] = molecular target: Fuc(a1-2)Gal(b1-4)[Fuc(a1-3)]GlcNAc(b1-2)Man(a1-3)[Fuc(a1-2)Gal(b1-4)[Fuc(a1-3)]GlcNAc(b1-2)Man(a1-6)]Man(b1-4)GlcNAc(b1-4)[Fuc(a1-6)]GlcNAc
Method in brief: as §1

[10] = molecular target: Fuc(a1-2)Gal(b1-4)[Fuc(a1-3)]GlcNAc(b1-2)[Fuc(a1-2)Gal(b1-4)[Fuc(a1-3)]GlcNAc(b1-4)]Man(a1-3)[Fuc(a1-2)Gal(b1-4)[Fuc(a1-3)]GlcNAc(b1-2)Man(a1-6)]Man(b1-4)GlcNAc(b1-4)GlcNAc
Method in brief: as §1

[11] = molecular target: Fuc(a1-2)Gal(b1-4)[Fuc(a1-3)]GlcNAc(b1-3)Gal(b1-4)[Fuc(a1-3)]GlcNAc
Method in brief: as §1

[12] = molecular target: Fuc(a1-2)Gal(b1-4)[Fuc(a1-3)]GlcNAc(b1-3)Gal(b1-4)[Fuc(a1-3)]GlcNAc(b1-3)Gal(b1-4)[Fuc(a1-3)]GlcNAc
Method in brief: as §1

[13] = molecular target: Fuc(a1-2)Gal(b1-4)[Fuc(a1-3)]GlcNAc(b1-3)GalNAc
Method in brief: as §1

[14] = molecular target: Fuc(a1-2)Gal(b1-4)[Fuc(a1-3)]GlcNAc(b1-3)[Neu5Ac(a2-6)Gal(b1-4)GlcNAc(b1-6)]Gal(b1-4)Glc
Method in brief: as §1

[15] = molecular target: Fuc(a1-2)Gal3S(b1-4)GlcNAc
Method in brief: as §1

[16] = molecular target: Fuc(a1-2)Gal6S(b1-3)GlcNAc
Method in brief: as §1

[17] = molecular target: Fuc(a1-2)Gal6S(b1-3)GlcNAc6S
Method in brief: as §1

Fuc(a1-2)Gal6S(b1-4)Glc = molecular target: Fuc(a1-2)Gal6S(b1-4)Glc
Method in brief: as §1

[18] = molecular target: Fuc(a1-2)Gal6S(b1-4)Glc6S
Method in brief: as §1

Fuc(a1-2)[Gal(a1-3)]Gal = molecular target: Fuc(a1-2)[Gal(a1-3)]Gal
Method in brief: as §1

[19] = molecular target: Fuc(a1-2)[Gal(a1-3)]Gal(b1-3)GalNAc
Method in brief: as §1

[20] = molecular target: Fuc(a1-2)[Gal(a1-3)]Gal(b1-3)GalNAc(b1-3)Gal(a1-4)Gal(b1-4)Glc
Method in brief: as §1

[21] = molecular target: Fuc(a1-2)[Gal(a1-3)]Gal(b1-3)GlcNAc
Method in brief: as §1

[22] = molecular target: Fuc(a1-2)[Gal(a1-3)]Gal(b1-3)GlcNAc(b1-2)Man(a1-3)[Fuc(a1-2)[Gal(a1-3)]Gal(b1-3)GlcNAc(b1-2)Man(a1-6)]Man(b1-4)GlcNAc(b1-4)GlcNAc
Method in brief: as §1

[23] = molecular target: Fuc(a1-2)[Gal(a1-3)]Gal(b1-3)GlcNAc(b1-2)Man(a1-3)[Fuc(a1-2)[Gal(a1-3)]Gal(b1-3)GlcNAc(b1-2)Man(a1-6)]Man(b1-4)GlcNAc(b1-4)[Fuc(a1-6)]GlcNAc
Method in brief: as §1

[24] = molecular target: Fuc(a1-2)[Gal(a1-3)]Gal(b1-3)GlcNAc(b1-3)GalNAc
Method in brief: as §1

[25] = molecular target: Fuc(a1-2)[Gal(a1-3)]Gal(b1-3)GlcNAc(b1-6)GalNAc
Method in brief: as §1

[26] = molecular target: Fuc(a1-2)[Gal(a1-3)]Gal(b1-4)Glc
Method in brief: as §1

[27] = molecular target: Fuc(a1-2)[Gal(a1-3)]Gal(b1-4)GlcNAc
Method in brief: as §1

[28] = molecular target: Fuc(a1-2)[Gal(a1-3)]Gal(b1-4)GlcNAc(b1-2)Man
Method in brief: as §1

B1: CFEM-PPl (Pichia pastoris), F2QPV1 (protein)
chain: AVATPPACLLACAAEVVKESSDCDALNNIQCICENEGSAIHACLESTCPDGLSSTALQSFEDVCESVGTEANLDE
glycan array binding signal (z-score) [1]: -0.136 | glycan array binding signal (z-score) [2]: -0.302 | glycan array binding signal (z-score) [3]: 0.514 | glycan array binding signal (z-score) [4]: -0.132 | glycan array binding signal (z-score) [5]: -0.319 | glycan array binding signal (z-score) [6]: -0.237 | glycan array binding signal (z-score) [7]: -0.251 | glycan array binding signal (z-score) [8]: -0.355 | glycan array binding signal (z-score) [9]: -0.089 | glycan array binding signal (z-score) [10]: 0.038 | glycan array binding signal (z-score) [11]: -0.222 | glycan array binding signal (z-score) [12]: -0.342 | glycan array binding signal (z-score) [13]: 0.643 | glycan array binding signal (z-score) [14]: -0.205 | glycan array binding signal (z-score) [15]: -0.03 | glycan array binding signal (z-score) [16]: -0.337 | glycan array binding signal (z-score) [17]: -0.279 | glycan array binding signal (z-score) (Fuc(a1-2)Gal6S(b1-4)Glc): -0.076 | glycan array binding signal (z-score) [18]: -0.192 | glycan array binding signal (z-score) (Fuc(a1-2)[Gal(a1-3)]Gal): -0.049 | glycan array binding signal (z-score) [19]: -0.261 | glycan array binding signal (z-score) [20]: -0.215 | glycan array binding signal (z-score) [21]: -0.267 | glycan array binding signal (z-score) [22]: -0.253 | glycan array binding signal (z-score) [23]: -0.37 | glycan array binding signal (z-score) [24]: -0.292 | glycan array binding signal (z-score) [25]: -0.339 | glycan array binding signal (z-score) [26]: -0.213 | glycan array binding signal (z-score) [27]: -0.122 | glycan array binding signal (z-score) [28]: -0.325
